From the supplement of paper PMC9446081
About 220 (0.56%) of roughly 39,000 compounds showed activity. The list shows a part of the results.

test system: Escherichia coli K-12 BW25113; experiment: relative growth (OD600 normalised to plate interquartile mean) (fraction); higher = less growth inhibition, active = 0.2 or less; settings: 50 µM; LB; incubation time: overnight (16-24 h)
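Further: static incubation at 37 °C against the wild-type strain, values averaged over two biological replicates.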

SMILES | relative growth
C[C@H]1CCCCO[C@@H](CN(C)Cc2ccc3c(c2)OCO3)[C@@H](C)CN([C@@H](C)CO)C(=O)c2cc(NS(=O)(=O)c3ccc(Cl)cc3)ccc2O1 | inactive: 1
Nc1nc(N)c2nc(CNc3ccc(C(=O)NC(CCC(=O)O)C(=O)O)cc3)cnc2n1 (centres undefined) | inactive: 0.992
C[C@@H]1CN([C@H](C)CO)C(=O)Cc2cc(NC(=O)Nc3ccccc3)ccc2O[C@@H]1CN(C)C(=O)Nc1ccc(C(F)(F)F)cc1 | inactive: 0.975
C[C@H](CO)N1C[C@H](C)[C@H](CN(C)Cc2ccncc2)OCCCC[C@H](C)Oc2ccc(NC(=O)CCC(F)(F)F)cc2C1=O | inactive: 1.05
C[C@H](CO)N1C[C@H](C)[C@@H](CN(C)C(=O)Nc2ccc(C(F)(F)F)cc2)OCCCC[C@H](C)Oc2ccc(NC(=O)Nc3cccc4ccccc34)cc2C1=O | inactive: 1.01
C[C@H]1CN([C@@H](C)CO)C(=O)c2cc(NC(=O)Nc3ccc(F)cc3)ccc2O[C@@H]1CN(C)S(C)(=O)=O | inactive: 0.991
C[C@H](CO)N1C[C@H](C)[C@H](CN(C)C(=O)c2ccncc2)OCCCC[C@H](C)Oc2ccc(NC(=O)C3CCCCC3)cc2C1=O | inactive: 1.01
CC(C)C#Cc1cnc2c(c1)C(=O)N([C@H](C)CO)C[C@H](C)[C@H](CN(C)S(=O)(=O)c1cn(C)cn1)O2 | inactive: 1.02
C[C@@H]1CCCCO[C@@H](CN(C)CC2CC2)[C@@H](C)CN([C@H](C)CO)C(=O)c2cc(NC(=O)Nc3ccc(F)cc3)ccc2O1 | inactive: 1
C[C@H](CO)N1C[C@H](C)[C@H](CN(C)Cc2ccc(-c3ccccc3)cc2)Oc2c(NC(=O)C3CC3)cccc2C1=O | inactive: 0.982
CC(C)NC(=O)Nc1ccc2c(c1)C(=O)N([C@@H](C)CO)C[C@H](C)[C@@H](CN(C)Cc1ccc(Oc3ccccc3)cc1)O2 | inactive: 1
C[C@H](CO)N1C[C@H](C)[C@H](CN(C)Cc2ccc3c(c2)OCO3)Oc2ccc(NC(=O)Nc3ccc(C(F)(F)F)cc3)cc2C1=O | inactive: 0.986
COc1ccc(NC(=O)Nc2ccc3c(c2)C(=O)N([C@@H](C)CO)C[C@@H](C)[C@@H](CN(C)S(=O)(=O)c2ccc(F)cc2)OCCCC[C@@H](C)O3)cc1 | inactive: 1.02
CCCN(C)C[C@H]1Oc2cc(C#Cc3ccccc3OC)ccc2S(=O)(=O)N([C@H](C)CO)C[C@H]1C | inactive: 0.985
CC1=C2C/C=C(\C)[C@H](O[C@H]3O[C@@H](CO)[C@@H](O)[C@@H](O)[C@@H]3O)C/C=C(\C)C[C@@H]2OC1=O | inactive: 0.983
C=CCCC(=O)N(C)[C@H](C)[C@H](OC(=O)[C@@H]1[C@@H]2C=C[C@]3(O2)[C@H](C(=O)N(CC=C)Cc2ccccc2)N(C(C)(C)C)C(=O)[C@@H]13)c1ccccc1 | inactive: 1.03
CN1CCN(C(=O)C[C@H]2C[C@H]3c4cc(NC(=O)c5ccc6c(c5)OCO6)ccc4O[C@H]3[C@@H](CO)O2)CC1 | inactive: 1.01
Cc1ccc(S(=O)(=O)Nc2ccc3c(c2)C(=O)N([C@H](C)CO)C[C@@H](C)[C@@H](CN(C)C(=O)Nc2ccccc2)OCCCC[C@H](C)O3)cc1 | inactive: 1.04
C[C@@H]1CCCCO[C@@H](CN(C)C(=O)C2CCCCC2)[C@@H](C)CN([C@@H](C)CO)C(=O)c2cc(NC(=O)Cc3ccccc3)ccc2O1 | inactive: 1.01
C[C@H](CO)N1C[C@H](C)[C@H](CN(C)S(=O)(=O)c2cccs2)Oc2ccc(NC(=O)Cn3cnnn3)cc2C1=O | inactive: 0.984

SMILES | relative growth
Cc1cccc(C(=O)O)c1O | inactive: 1.03
CCCNC(=O)Nc1ccc2c(c1)OC[C@H](C)N(C(=O)C1CCOCC1)C[C@H](C)[C@H](OC)CN(C)C2=O | inactive: 1.03
Cc1ccc2c(Br)cc(Br)c(OC(=O)c3ccccc3)c2n1 | inactive: 0.528
CC(C)C[C@](O)(C(=O)OCc1ccc(O[C@@H]2O[C@H](CO)[C@@H](O)[C@H](O)[C@H]2O)cc1)[C@@H](O)C(=O)OCc1ccc(O[C@@H]2O[C@H](CO)[C@@H](O)[C@H](O)[C@H]2O)cc1 | inactive: 1.01
C[C@@H]1CCCCO[C@H](CN(C)Cc2ccc3c(c2)OCO3)[C@H](C)CN([C@@H](C)CO)C(=O)c2cc(NC(=O)Nc3cccc4ccccc34)ccc2O1 | inactive: 1.03
C[C@@H]1CN([C@@H](C)CO)C(=O)Cc2cc(NC(=O)C3CCCCC3)ccc2O[C@@H]1CN(C)S(=O)(=O)c1cn(C)cn1 | inactive: 0.985
O=C(O)c1n[nH]c2c1CCCC2 | inactive: 0.985
CC(=O)O[C@H](C)[C@H]1[C@@](C)(O)CC(=O)[C@]23O[C@]12C(=O)c1ccc(-c2ccc4c(c2O)[C@@H](O)[C@@]25O[C@]2(C4=O)[C@@H]([C@@H](C)OC(C)=O)[C@@](C)(O)CC5=O)c(O)c1[C@H]3O | inactive: 1.03
O=c1[nH]c(=O)n([C@@H]2C[C@@H](O)[C@@H](CO)O2)cc1F | active: 0.0303
Cc1noc(C)c1S(=O)(=O)Nc1ccc2c(c1)C(=O)N([C@H](C)CO)C[C@H](C)[C@@H](CN(C)CC1CCCCC1)OCCCC[C@@H](C)O2 | inactive: 1
COc1ccc(S(=O)(=O)N(C)C[C@@H]2Oc3ccc(NC(=O)Nc4c(C)noc4C)cc3CC(=O)N([C@@H](C)CO)C[C@@H]2C)cc1 | inactive: 1.01
C[C@@H]1CN([C@H](C)CO)C(=O)c2cc(C#C[C@@H](C)O)cnc2O[C@H]1CN(C)C(=O)Nc1ccc(C(F)(F)F)cc1 | inactive: 0.99
N#C[C@@H]1C(=O)NC(=O)[C@@H](C#N)C12CCCC2 | inactive: 0.934
C[C@H]1CN([C@@H](C)CO)C(=O)Cc2cc(NS(=O)(=O)c3cn(C)cn3)ccc2O[C@H]1CN(C)S(=O)(=O)c1ccc(F)cc1 | inactive: 0.987
CO[C@H]1O[C@H](CO)[C@@H](OC(=O)Nc2cccc(F)c2)[C@H](OC(=O)Nc2ccccc2-c2ccccc2)[C@H]1OC(=O)Nc1ccccc1-c1ccccc1 | inactive: 1.05
CNC[C@@H](O)c1cccc(O)c1 | inactive: 1.02
COc1ccc(NC(=O)Nc2ccc3c(c2)CC(=O)N([C@@H](C)CO)C[C@@H](C)[C@@H](CN(C)Cc2ccc(Oc4ccccc4)cc2)O3)cc1 | inactive: 1
O=C(O)c1ccc(O)cc1O | inactive: 0.67
O=C1NC(=O)[C@H](Cc2ccccc2)N1 | inactive: 0.992
CCc1ccc(Nc2c3c(nc4ccccc24)CCCC3)cc1 | inactive: 0.97

SMILES | relative growth
O=C(CCCCCNC(=O)OC[C@]12N=C3SCc4ccccc4CN3[C@H](c3ccccc3O1)[C@H]2COC(=O)c1ccccc1)NO | inactive: 0.998
COc1ccc(NC(=O)Nc2ccc3c(c2)C(=O)N([C@@H](C)CO)C[C@H](C)[C@@H](CN(C)S(=O)(=O)c2ccc(F)cc2)OCCCC[C@H](C)O3)cc1 | inactive: 0.932
Cc1ccc(S(=O)(=O)Nc2cccc3c2O[C@H](CN(C)C(=O)Nc2ccc(C(F)(F)F)cc2)[C@@H](C)CN([C@@H](C)CO)C3=O)cc1 | inactive: 0.975
Cc1noc(C)c1NC(=O)N(C)C[C@@H]1Oc2ccc(NC(=O)Nc3ccc(C(F)(F)F)cc3)cc2CC(=O)N([C@H](C)CO)C[C@H]1C | inactive: 1
COc1ccc(S(=O)(=O)Nc2ccc3c(c2)CC(=O)N([C@H](C)CO)C[C@@H](C)[C@H](CN(C)Cc2ccc(Oc4ccccc4)cc2)O3)cc1 | inactive: 0.994
C[C@@H]1CN([C@H](C)CO)C(=O)c2cc(NC(=O)CCC(F)(F)F)ccc2O[C@H]1CN(C)Cc1ccc(C(=O)Nc2ccccc2N)cc1 | inactive: 0.983
COc1ccc(S(=O)(=O)Nc2ccc3c(c2)C(=O)N([C@H](C)CO)C[C@@H](C)[C@H](CN(C)Cc2ccc(Cl)c(Cl)c2)O3)cc1 | inactive: 0.963
O=C(O)CNC(=O)CNC(=O)Cn1nc(-c2ccccc2)ccc1=O | inactive: 0.982
C[C@@H]1CN([C@H](C)CO)S(=O)(=O)c2ccc(C#CC3CCCC3)cc2O[C@H]1CN(C)Cc1cncnc1 | inactive: 1.03
CCCNC(=O)N1C[C@H](O)COC[C@H]2O[C@@H](CC(=O)NCc3ccncn3)CC[C@@H]21 | inactive: 1.01
CO[C@@H]1CN(C)C(=O)c2cc(NC(=O)CC(F)(F)F)ccc2OC[C@H](C)N(C(=O)C2CCOCC2)C[C@H]1C | inactive: 1
COC(=O)[C@H]1[C@H](C(=O)O)[C@@]2(C(=O)Nc3ccc(C#Cc4ccc(OC)cc4)cc32)[C@@H](c2ccccc2)N1C | inactive: 0.976
COc1ccc(S(=O)(=O)N(C)C[C@H]2Oc3ncc(-c4ccncc4)cc3C(=O)N([C@@H](C)CO)C[C@@H]2C)cc1 | inactive: 1.01
CSc1ccc(Sc2ccc(SC)cc2)cc1 | inactive: 0.923
O=C(C[C@@H]1C[C@H]2c3cc(NC(=O)Cc4ccncc4)ccc3O[C@H]2[C@@H](CO)O1)NCCN1CCCCC1 | inactive: 0.982
C[C@@H]1CN([C@H](C)CO)C(=O)CCCn2nncc2CO[C@H]1CN(C)S(=O)(=O)c1ccc2ccccc2c1 | inactive: 0.995
C[C@H](CO)N1C[C@H](C)[C@@H](CN(C)C(=O)Nc2cccc3ccccc23)OCCCC[C@H](C)Oc2ccc(NS(=O)(=O)c3ccc(F)cc3)cc2C1=O | inactive: 1.02
CNC[C@H]1Oc2cc(C#CCN(C)C)ccc2S(=O)(=O)N([C@@H](C)CO)C[C@@H]1C | inactive: 1.03
C=c1cc(C)ccc1=C1NN=C(NC(C)=O)O1 | inactive: 0.968
